# A collection of fitness landscapes (doi:10.1016/j.celrep.2020.107928)
# Over roughly 81,000 sequences, “one-hybrid fitness for binding parS DNA” has its median near -0.17; the highest 2% begin near 0.51. The list shows a part of the results.
# B1: Caulobacter ParB omega fusion; a variant is named by its letters at X, in order, B8GW30 (parent)
# chain: MESVVVGEPGMSEGRRGLGRGLSALLGEVDAAPAQAPGEQLGGSREAPIEILQRNPDQPRRTFREEDLEDLSNSIREKGVLQPILVRPSPDTAGEYQIVAGERAWRAAQRAGLKTVPIMVRELDDLAVLEIGIIENVQRADLNVLEEALSYKVLMEKFERTQENIAQTIGKSXSHVANXMRLLXLPDEVQSYLVSGELTAXHARAIAAAADPVALAKQIIEGGLSVRETEALARKAPNLSAGKSKGGRPPRVKDTDTQALESDLSSVLGLDVSIDHRGSTGTLTITYATLEQLDDLCNRLTRGI
# Variants of: B1
# Assay: one-hybrid fitness for binding parS DNA (scaled: cognate 1, non-cognate 0); higher = stronger binding
# Settings: with parS DNA site
# How it was run: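 Caulobacter ParB libraries with four specificity codons randomised were screened by bacterial one-hybrid selection in the E. coli USO strain, using a HIS3 reporter whose site lies 19 bp from the promoter. Selection ran for 48 hours at 37°C on M9 lacking histidine, with 0.1 mM IPTG and 5 mM 3-AT. Plasmids were Illumina-sequenced before and after selection, three replicate libraries were pooled, and variants with under 10 reads were dropped. Fitness is the log change in each variant's read ratio to wild type, rescaled against the cognate and non-cognate sites.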
row,Variant,one-hybrid fitness for binding parS DNA
1,PLKE,≤ 0.2
2,WKQT,≤ 0.2
3,SEMS,≤ 0.2
4,HSWI,≤ 0.2
5,PEMH,≤ 0.2
6,QRML,≤ 0.2
7,SYSD,≤ 0.2
8,KRAT,≤ 0.2
9,RMWG,0.991
10,DHCV,≤ 0.2
11,LGLG,≤ 0.2
12,QLMW,≤ 0.2
13,VCAG,≤ 0.2
14,GQQA,≤ 0.2
15,QRFC,≤ 0.2
16,PMCR,≤ 0.2
17,RSDQ,≤ 0.2
18,QWKQ,≤ 0.2
19,QPGL,≤ 0.2
20,RRKK,≤ 0.2
21,SWRQ,≤ 0.2
22,LKKT,≤ 0.2
23,SMHG,≤ 0.2
24,NHIP,≤ 0.2

row,Variant,one-hybrid fitness for binding parS DNA
1,YWAG,≤ 0.2
2,NPCT,≤ 0.2
3,MLYR,≤ 0.2
4,PVRN,≤ 0.2
5,HASG,≤ 0.2
6,GRHD,≤ 0.2
7,YSEC,≤ 0.2
8,ETRR,≤ 0.2
9,QLPW,≤ 0.2
10,HLWG,≤ 0.2
11,MAAL,≤ 0.2
12,QRAT,≤ 0.2
13,LKHE,≤ 0.2
14,LLSA,≤ 0.2
15,AGKQ,≤ 0.2
16,PPFC,≤ 0.2
17,HCMV,≤ 0.2
18,TGIN,≤ 0.2
19,MSQC,≤ 0.2
20,IPYV,≤ 0.2
21,VCHQ,≤ 0.2
22,SKQR,≤ 0.2
23,VQQL,≤ 0.2
24,HKFW,≤ 0.2

row,Variant,one-hybrid fitness for binding parS DNA
1,TLAW,≤ 0.2
2,SATC,≤ 0.2
3,HARN,≤ 0.2
4,RCLH,0.258
5,WNMG,≤ 0.2
6,SDNY,≤ 0.2
7,KAGI,≤ 0.2
8,DEAG,≤ 0.2
9,QVHK,≤ 0.2
10,SANR,≤ 0.2
11,AFLD,≤ 0.2
12,TLCV,≤ 0.2
13,SQKT,≤ 0.2
14,EFER,≤ 0.2
15,ATAS,≤ 0.2
16,YTRA,≤ 0.2
17,LHPC,≤ 0.2
18,RIKV,≤ 0.2
19,TSRA,≤ 0.2
20,KQEG,≤ 0.2
21,YCSD,≤ 0.2
22,RVDH,≤ 0.2
23,QSDC,≤ 0.2
24,WTSA,≤ 0.2

row,Variant,one-hybrid fitness for binding parS DNA
1,RLDE,≤ 0.2
2,WIIS,≤ 0.2
3,WYWG,≤ 0.2
4,PYIR,≤ 0.2
5,LRER,≤ 0.2
6,HPNV,≤ 0.2
7,YMTD,≤ 0.2
8,RHWE,≤ 0.2
9,RFQV,≤ 0.2
10,TNYA,≤ 0.2
11,VDPR,≤ 0.2
12,LDGR,≤ 0.2
13,NNDF,≤ 0.2
14,TLSW,≤ 0.2
15,LSQG,≤ 0.2
16,NANS,≤ 0.2
17,GRIS,≤ 0.2
18,TVLI,≤ 0.2
19,LTHE,≤ 0.2
20,ARHI,≤ 0.2
21,YPKN,≤ 0.2
22,SYAC,≤ 0.2
23,DRSR,≤ 0.2
24,GLPR,≤ 0.2

row,Variant,one-hybrid fitness for binding parS DNA
1,GLVD,≤ 0.2
2,QLST,≤ 0.2
3,LGPV,≤ 0.2
4,VILT,≤ 0.2
5,RYGT,0.853
6,NWMS,≤ 0.2
7,LHCQ,≤ 0.2
8,HAAV,≤ 0.2
9,HSNR,≤ 0.2
10,NVVC,≤ 0.2
11,NRVR,≤ 0.2
12,AMVC,≤ 0.2
13,SMPF,≤ 0.2
14,RSPL,≤ 0.2
15,GSFR,≤ 0.2
16,TKES,≤ 0.2
17,IRGY,≤ 0.2
18,SDWS,≤ 0.2
19,RPHP,≤ 0.2
20,DYII,≤ 0.2
21,SFGA,≤ 0.2
22,LMQW,≤ 0.2
23,YCHN,≤ 0.2
24,EAVW,≤ 0.2

row,Variant,one-hybrid fitness for binding parS DNA
1,HEHT,≤ 0.2
2,PWVR,≤ 0.2
3,WQKT,≤ 0.2
4,LENL,≤ 0.2
5,TNLE,≤ 0.2
6,DVFG,≤ 0.2
7,GKMR,≤ 0.2
8,QGYS,≤ 0.2
9,IDLD,≤ 0.2
10,CLYC,≤ 0.2
11,LEML,≤ 0.2
12,GPDC,≤ 0.2
13,FCYR,≤ 0.2
14,YMER,≤ 0.2
15,RNAP,≤ 0.2
16,QCKA,≤ 0.2
17,QVSD,≤ 0.2
18,TCCD,≤ 0.2
19,TTQM,≤ 0.2
20,TASA,≤ 0.2
21,LVTR,≤ 0.2
22,GPVG,≤ 0.2
23,YSDF,≤ 0.2
24,SDWD,≤ 0.2

row,Variant,one-hybrid fitness for binding parS DNA
1,TRVL,≤ 0.2
2,DQVG,≤ 0.2
3,CSLG,≤ 0.2
4,WRQR,≤ 0.2
5,LRGI,≤ 0.2
6,DFMT,≤ 0.2
7,LIAF,≤ 0.2
8,TGTF,≤ 0.2
9,QYPC,≤ 0.2
10,WLTL,≤ 0.2
11,RPVC,≤ 0.2
12,RWRN,0.401
13,HCKT,≤ 0.2
14,PCCD,≤ 0.2
15,HCNG,≤ 0.2
16,DHAR,≤ 0.2
17,THIG,≤ 0.2
18,VLWF,≤ 0.2
19,RKIP,≤ 0.2
20,THKW,≤ 0.2
21,SCMY,≤ 0.2
22,PRLM,≤ 0.2
23,IPPC,≤ 0.2
24,SIWS,≤ 0.2

row,Variant,one-hybrid fitness for binding parS DNA
1,NPNR,≤ 0.2
2,TQAF,≤ 0.2
3,LQAF,≤ 0.2
4,SLRD,≤ 0.2
5,GDWS,≤ 0.2
6,PIWE,≤ 0.2
7,VFLG,≤ 0.2
8,TIDS,≤ 0.2
9,CSVW,≤ 0.2
10,QCSE,≤ 0.2
11,GWKM,≤ 0.2
12,AKPS,≤ 0.2
13,KMSV,≤ 0.2
14,KKAM,≤ 0.2
15,RPME,≤ 0.2
16,NVNG,≤ 0.2
17,ICWE,0.344
18,TNCG,≤ 0.2
19,DYPL,≤ 0.2
20,WKNR,≤ 0.2
21,QLFA,≤ 0.2
22,LQKI,≤ 0.2
23,CGMG,≤ 0.2
24,FPCM,≤ 0.2

row,Variant,one-hybrid fitness for binding parS DNA
1,DGRC,≤ 0.2
2,RTHA,0.61
3,WVLT,≤ 0.2
4,QLAM,≤ 0.2
5,QREY,≤ 0.2
6,PRPH,≤ 0.2
7,QILC,≤ 0.2
8,VEHK,≤ 0.2
9,DVSC,≤ 0.2
10,GIGA,≤ 0.2
11,LRVF,≤ 0.2
12,LGDR,≤ 0.2
13,NCNT,≤ 0.2
14,APSM,≤ 0.2
15,PYAH,≤ 0.2
16,FHEV,≤ 0.2
17,VMYG,≤ 0.2
18,PAIF,≤ 0.2
19,APAP,≤ 0.2
20,PLAH,≤ 0.2
21,AVQG,≤ 0.2
22,PPSM,≤ 0.2
23,GLFL,≤ 0.2
24,MFYR,≤ 0.2

row,Variant,one-hybrid fitness for binding parS DNA
1,SSMI,≤ 0.2
2,PRPR,≤ 0.2
3,SRGD,≤ 0.2
4,QQCN,≤ 0.2
5,ENPS,≤ 0.2
6,PSLN,≤ 0.2
7,LETG,≤ 0.2
8,RPVK,≤ 0.2
9,GSTL,≤ 0.2
10,RCDY,0.414
11,HHSV,≤ 0.2
12,MTIS,≤ 0.2
13,LTWR,≤ 0.2
14,AHTQ,≤ 0.2
15,MGKG,≤ 0.2
16,AILE,≤ 0.2
17,PDER,≤ 0.2
18,EHTG,≤ 0.2
19,DAAV,≤ 0.2
20,LAVL,≤ 0.2
21,VHMS,≤ 0.2
22,DYPY,≤ 0.2
23,KRQR,≤ 0.2
24,PCMR,≤ 0.2

row,Variant,one-hybrid fitness for binding parS DNA
1,YEDL,≤ 0.2
2,WRFC,≤ 0.2
3,SRNT,≤ 0.2
4,RALN,0.431
5,EQSW,≤ 0.2
6,VVWT,≤ 0.2
7,TKKF,≤ 0.2
8,HQHC,≤ 0.2
9,NLID,≤ 0.2
10,HTWF,≤ 0.2
11,LPEW,≤ 0.2
12,MAMR,≤ 0.2
13,YSCK,≤ 0.2
14,YHYY,≤ 0.2
15,ATKM,≤ 0.2
16,VPVG,≤ 0.2
17,FRWR,≤ 0.2
18,KRMV,≤ 0.2
19,PNWD,≤ 0.2
20,TRKV,≤ 0.2
21,LQDS,≤ 0.2
22,TFVI,≤ 0.2
23,RDPY,≤ 0.2
24,TNMS,≤ 0.2

row,Variant,one-hybrid fitness for binding parS DNA
1,HKNN,≤ 0.2
2,EECL,≤ 0.2
3,GCLA,≤ 0.2
4,PNTY,≤ 0.2
5,DQMG,≤ 0.2
6,PTHT,≤ 0.2
7,QQSV,≤ 0.2
8,NVYP,≤ 0.2
9,SPQG,≤ 0.2
10,AWAV,≤ 0.2
11,DSPF,≤ 0.2
12,HHWF,≤ 0.2
13,KGRC,≤ 0.2
14,IGIR,≤ 0.2
15,DKLW,≤ 0.2
16,PPFN,≤ 0.2
17,GNAG,≤ 0.2
18,GHPH,≤ 0.2
19,YNSF,≤ 0.2
20,THGV,≤ 0.2
21,NDES,≤ 0.2
22,RSFE,≤ 0.2
23,WWAR,≤ 0.2
24,TACR,≤ 0.2

row,Variant,one-hybrid fitness for binding parS DNA
1,RLQI,≤ 0.2
2,GPPR,≤ 0.2
3,QSMG,≤ 0.2
4,PWNT,≤ 0.2
5,QHSE,≤ 0.2
6,SRIY,≤ 0.2
7,ICTW,≤ 0.2
8,CPTR,≤ 0.2
9,LCRG,≤ 0.2
10,TDRC,≤ 0.2
11,KTDE,≤ 0.2
12,YRYR,≤ 0.2
13,RPGS,≤ 0.2
14,DLLT,≤ 0.2
15,LSIL,≤ 0.2
16,TIFG,≤ 0.2
17,YLTA,≤ 0.2
18,PLSE,≤ 0.2
